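Where inhibition never reached the appropriate level, the endpoint shown equals the highest concentration tested. Otherwise, values were interpolated linearly from a five-concentration, 48-hour dose response in 96-well plates. At the GI50, growth is halved.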 A number of entries come with more than one value. The list is limited to them. There may be further records. For some assays here: A record mostly stands for its own series of concentrations, which the source does not state; some values may only mark the edge of a range.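 Definition used: TGI = concentration required for complete inhibition of growth.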 For some assays here: Values that stand side by side are repeated measurements in other runs, samples, wells, individuals or studies. What stands in brackets tells the records apart. Letters count within one entry.
Tests used:
Assay in all cases: DTP human tumour cell line panel, 48 h
RPMI-8226 leukemia = tested on: RPMI-8226 leukemia
HL-60(TB) leukemia = tested on: HL-60(TB) leukemia
OVCAR-5 ovarian = tested on: OVCAR-5 ovarian
SK-MEL-5 melanoma = tested on: SK-MEL-5 melanoma
UACC-62 melanoma = tested on: UACC-62 melanoma
SNB-75 CNS = tested on: SNB-75 CNS
SF-295 CNS = tested on: SF-295 CNS
NCI-H23 lung = tested on: NCI-H23 lung
CCRF-CEM leukemia = tested on: CCRF-CEM leukemia
HOP-62 NSCLC = tested on: HOP-62 NSCLC
NCI/ADR-RES ovarian = tested on: NCI/ADR-RES ovarian
K-562 leukemia = tested on: K-562 leukemia
A498 renal = tested on: A498 renal
M14 melanoma = tested on: M14 melanoma
HCC-2998 colon = tested on: HCC-2998 colon
SF-539 CNS = tested on: SF-539 CNS
COLO 205 colon = tested on: COLO 205 colon
UO-31 renal = tested on: UO-31 renal
SN12C renal = tested on: SN12C renal
SK-MEL-2 melanoma = tested on: SK-MEL-2 melanoma
SK-OV-3 ovarian = tested on: SK-OV-3 ovarian
NCI-H522 lung = tested on: NCI-H522 lung
EKVX NSCLC = tested on: EKVX NSCLC
SF-268 CNS = tested on: SF-268 CNS
PC-3 prostate = tested on: PC-3 prostate
NCI-H460 lung = tested on: NCI-H460 lung
NCI-H226 lung = tested on: NCI-H226 lung
TK-10 renal = tested on: TK-10 renal
SK-MEL-28 melanoma = tested on: SK-MEL-28 melanoma
HCT-116 colon = tested on: HCT-116 colon
OVCAR-8 ovarian = tested on: OVCAR-8 ovarian
MOLT-4 leukemia = tested on: MOLT-4 leukemia
MALME-3M melanoma = tested on: MALME-3M melanoma
MDA-MB-435 = tested on: MDA-MB-435
IGROV1 ovarian = tested on: IGROV1 ovarian
U251 CNS = tested on: U251 CNS
OVCAR-3 ovarian = tested on: OVCAR-3 ovarian
RXF 393 renal = tested on: RXF 393 renal
SW-620 colon = tested on: SW-620 colon
A549 NSCLC = tested on: A549 NSCLC
T-47D breast = tested on: T-47D breast
SNB-19 CNS = tested on: SNB-19 CNS
CAKI-1 renal = tested on: CAKI-1 renal
HCT-15 colon = tested on: HCT-15 colon
DU-145 prostate = tested on: DU-145 prostate
SR leukemia = tested on: SR leukemia
HS 578T breast = tested on: HS 578T breast
ACHN renal = tested on: ACHN renal
OVCAR-4 ovarian = tested on: OVCAR-4 ovarian

C/C(=N\NC(=S)N1CCN(C2CCCCCC2)CC1)c1ccccn1
TGI (RPMI-8226 leukemia): 17.6 nM and 545 nM
TGI (HL-60(TB) leukemia): 4.09 nM and 103 nM
GI50 (OVCAR-5 ovarian): < 1 nM [1 test] and 69.2 nM [mean of 3 tests]

COC(C(=O)C(O)C(C)O)C1Cc2cc3cc(OC4CC(OC5CC(O)C(O)C(C)O5)C(O)C(C)O4)c(C)c(O)c3c(O)c2C(=O)C1OC1CC(OC2CC(O)C(OC3CC(C)(O)C(O)C(C)O3)C(C)O2)C(O)C(C)O1 (stereo unspecified)
TGI (SK-MEL-5 melanoma): 0.0188 µg/mL [1 test] and 0.00511 µg/mL [mean of 3 tests]
TGI (UACC-62 melanoma): 0.0112 µg/mL [1 test] and 0.000821 µg/mL [mean of 4 tests]
TGI (SNB-75 CNS): 0.0752 µg/mL [1 test] and 0.0127 µg/mL [mean of 4 tests]
TGI (SF-295 CNS): 26 µg/mL [1 test] and 0.0612 µg/mL [mean of 3 tests]
TGI (NCI-H23 lung): 0.0437 µg/mL [1 test] and 0.00342 µg/mL [mean of 4 tests]
TGI (CCRF-CEM leukemia): 112 µg/mL [1 test] and 0.132 µg/mL [mean of 3 tests]
TGI (HOP-62 NSCLC): 3.15 µg/mL [1 test] and 0.000461 µg/mL [mean of 2 tests]
TGI (NCI/ADR-RES ovarian): 112 µg/mL [1 test] and 0.746 µg/mL [mean of 4 tests]
TGI (K-562 leukemia): 41.8 µg/mL [1 test] and 0.999 µg/mL [mean of 4 tests]
TGI (A498 renal): 0.0112 µg/mL [1 test] and 9.7e-05 µg/mL [mean of 2 tests]
TGI (M14 melanoma): 0.222 µg/mL [1 test] and 2.29 µg/mL [mean of 2 tests]
TGI (HCC-2998 colon): 0.0368 µg/mL [1 test] and 0.000957 µg/mL [mean of 3 tests]
TGI (SF-539 CNS): 0.0358 µg/mL [1 test] and 0.00249 µg/mL [mean of 2 tests]
TGI (COLO 205 colon): 0.0208 µg/mL [1 test] and 0.00176 µg/mL [mean of 4 tests]
TGI (UO-31 renal): 17.8 µg/mL [1 test] and 0.478 µg/mL [mean of 4 tests]
TGI (SN12C renal): 112 µg/mL [1 test] and 4.74 µg/mL [mean of 4 tests]
TGI (SK-MEL-2 melanoma): 0.0112 µg/mL [1 test] and 0.00228 µg/mL [mean of 3 tests]
TGI (SK-OV-3 ovarian): 112 µg/mL [1 test] and 0.963 µg/mL [mean of 4 tests]
TGI (NCI-H522 lung): 0.0112 µg/mL [1 test] and 0.00126 µg/mL [mean of 4 tests]
TGI (EKVX NSCLC): 6.49 µg/mL and 0.0557 µg/mL
TGI (SF-268 CNS): 35.3 µg/mL [1 test] and 0.862 µg/mL [mean of 4 tests]
TGI (PC-3 prostate): 48.2 µg/mL [1 test] and > 150 µg/mL [mean of 2 tests]
TGI (NCI-H460 lung): 112 µg/mL [1 test] and 4.19 µg/mL [mean of 4 tests]
TGI (NCI-H226 lung): 0.0197 µg/mL [1 test] and 0.0011 µg/mL [mean of 3 tests]
TGI (TK-10 renal): 0.335 µg/mL and > 150 µg/mL
TGI (SK-MEL-28 melanoma): 0.0804 µg/mL [1 test] and 0.00188 µg/mL [mean of 4 tests]
TGI (HCT-116 colon): 112 µg/mL [1 test] and 12.2 µg/mL [mean of 2 tests]
TGI (OVCAR-8 ovarian): 13.6 µg/mL [1 test] and 2.49 µg/mL [mean of 4 tests]
TGI (MOLT-4 leukemia): 19.2 µg/mL [1 test] and 0.325 µg/mL [mean of 4 tests]
TGI (MALME-3M melanoma): 0.0691 µg/mL [1 test] and 0.00385 µg/mL [mean of 4 tests]
TGI (MDA-MB-435): 0.145 µg/mL [1 test] and 5.41 µg/mL [mean of 2 tests]
TGI (IGROV1 ovarian): 112 µg/mL [1 test] and 4.74 µg/mL [mean of 4 tests]
TGI (U251 CNS): 112 µg/mL [1 test] and 2.82 µg/mL [mean of 4 tests]
TGI (OVCAR-3 ovarian): 14.8 µg/mL [1 test] and 0.292 µg/mL [mean of 3 tests]
TGI (OVCAR-5 ovarian): 112 µg/mL [1 test] and 0.333 µg/mL [mean of 3 tests]
TGI (RXF 393 renal): 0.0112 µg/mL [1 test] and 0.000805 µg/mL [mean of 3 tests]
TGI (SW-620 colon): 112 µg/mL [1 test] and 15 µg/mL [mean of 3 tests]
TGI (A549 NSCLC): 112 µg/mL [1 test] and 4.74 µg/mL [mean of 4 tests]

C=C1COC(O)(C2OCOC(C3CC(=O)NC(=O)C3)C2O)C1C (stereo unspecified)
TGI (T-47D breast): 3.43 nM and 34.7 nM
TGI (SNB-19 CNS): 39.1 nM and > 100 µM
TGI (CAKI-1 renal): 37.4 nM and 521 nM
TGI (HCT-15 colon): 49.2 nM and > 100 µM

Cc1cc2nc3ccc(=[N+](C)C)cc-3sc2cc1N
TGI (RPMI-8226 leukemia): 865 nM [sample A] and 31 µM [sample B]
TGI (CCRF-CEM leukemia): 1.8 µM [sample A] and > 56.4 µM [sample B] and 6.41 µM [sample C]
TGI (K-562 leukemia): 3.3 µM [sample A] and > 45.2 µM [sample B] and 4.2 µM [sample C]
TGI (DU-145 prostate): 3.35 µM [sample A] and 29.5 µM [sample B] and 2.48 µM [sample C]
TGI (SR leukemia): 2.87 µM [sample A] and 90.8 µM [sample B]
TGI (HS 578T breast): 1.72 µM [sample A] and 26.4 µM [sample B] and 6.78 µM [sample C]
TGI (HL-60(TB) leukemia): 1.17 µM [sample A] and > 30.9 µM [sample B] and 1.05 µM [sample C]
TGI (SF-268 CNS): 4.14 µM [sample A] and > 46.8 µM [sample B] and 3.3 µM [sample C]
TGI (ACHN renal): 2.58 µM [sample A] and 31.7 µM [sample B] and 2.86 µM [sample C]
TGI (OVCAR-4 ovarian): 793 nM [sample A] and 13.7 µM [sample B] and 658 nM [sample C]
TGI (MOLT-4 leukemia): 1.91 µM [sample A] and > 37.7 µM [sample B] and 1.45 µM [sample C]

Reference: PubChem BioAssay (NCI)
